Reference: PubChem BioAssay AID504841 (National Center for Advancing Translational Sciences (NCATS), 2011)
The campaign covered roughly 1,100 compounds. About 160 (15%) were called active. Inconclusive results, whose numbers are uncertain, are shown with a selection of clear calls. Calls come from the whole dose curve; as a rule, active = well fitted inhibition curve with a large enough effect; inconclusive = small, poorly fitted or top-dose-only effect; inactive = no such curve, though single readings can be large or run the other way. Where the call is inconclusive, the potency comes from a doubtful curve fit.

biological target: ATP-dependent DNA helicase Q1 (Homo sapiens) (UniProt P46063); assay: Confirmation qHTS Assay for Inhibitors of RecQ-Like Dna Helicase 1 (RECQ1) - Round 2 Cherry Picks; details: recombinant RECQ1 DNA unwinding, red fluorescence; series mostly up to 119 µM; note: nearly all actives have a fitted effect of over 50% in size
Description: Survival of cells and the faithful propagation of the genome depend on elaborate mechanisms of detecting and repairing DNA damage. Treatment of advanced cancer relies on radiation therapy or chemotherapy, which kill cancer cells by causing extensive DNA damage. It is often found, that cancer cells develop resistance to therapy through enhanced activity of DNA repair functions; this has led to an increased interest in developing drugs that interfere with DNA repair, which could sensitize cancer cells to conventional therapy. This validation qHTS assay pertains to human RECQ1, which is important in resolving abnormal DNA structures formed during replication or homologous recombination. Shutting down the expression of RECQ1 leads to chromosomal instability and higher radiation sensitivity in cultured cells. […] The validation assay was a fluorescence quenching based kinetic qHTS for RECQ1 Helicase DNA unwinding. The activity was measured as ATP-dependent separation of a 20-bp DNA duplex extended by 30-nt single-stranded tails (forked duplex). The forked DNA substrate was tagged with rhodamine fluorophore (carboxytetramethyl rhodamine, TAMRA) and BHQ-2 (Black Hole Quencher 2) dark quencher. Strand separation results in an increase in the fluorescence of TAMRA (excitation 525 nm, emission 598 nm). This substrate construct operates in a red-shifted region where very few compound library members have been noted to fluoresce (PubChem AIDs 593 and 594). An additional feature of the assay is the inclusion of 2.5 ug/ml poly (dIdC), to reduce interference by compounds such as DNA intercalators, a major source of false inhibitors. NIH Chemical Genomics Center [NCGC] NIH Molecular Libraries Probe Centers Network [MLPCN] MLPCN Grant: MH087284-01 Assay Submitter (PI): Opher Gileadi, Structural Genomics Consortium, University of Oxford
Three uL of reaction buffer (25 mM Tris-HCl (pH 8.0), 5 mM NaCl, 2 mM MgCl2, 1mM DTT, 0.01% Tween- 20, and 2.5 ug/ml poly(dI-dC), including enzyme (50 nM RECQ1T1), were dispensed into a 1536-well Greiner black assay plate via solenoid-valve based nanoliter dispensers. Compounds (23 nl each in columns 5-48) and control (23 nl each in column 2 as dose-response) were transferred via a Kalypsys pintool equipped with a 1536-pin array. The plates were incubated for 15 min at room temperature, and then 1 ul of substrates (200 nM DNA and 2 mM ATP, final concentrations) was added to start the reaction. The plate was transferred into a ViewLux high-throughput CCD imager where the reaction progress was measured in a discontinuous kinetic mode (two reads spaced 2 hours apart, with intermediate room temperature incubation of the covered assay plate) by using standard red-fluorescence optics (excitation filter 525 nm, emission filter 598 nm). Enzyme-free and vehicle (DMSO) controls were included for signal normalization.
Potency is the fitted concentration of half-maximal effect; tags give direction and shape of the fitted curve.

Chain of UniProt P46063 (P46063 whole entry, looked up): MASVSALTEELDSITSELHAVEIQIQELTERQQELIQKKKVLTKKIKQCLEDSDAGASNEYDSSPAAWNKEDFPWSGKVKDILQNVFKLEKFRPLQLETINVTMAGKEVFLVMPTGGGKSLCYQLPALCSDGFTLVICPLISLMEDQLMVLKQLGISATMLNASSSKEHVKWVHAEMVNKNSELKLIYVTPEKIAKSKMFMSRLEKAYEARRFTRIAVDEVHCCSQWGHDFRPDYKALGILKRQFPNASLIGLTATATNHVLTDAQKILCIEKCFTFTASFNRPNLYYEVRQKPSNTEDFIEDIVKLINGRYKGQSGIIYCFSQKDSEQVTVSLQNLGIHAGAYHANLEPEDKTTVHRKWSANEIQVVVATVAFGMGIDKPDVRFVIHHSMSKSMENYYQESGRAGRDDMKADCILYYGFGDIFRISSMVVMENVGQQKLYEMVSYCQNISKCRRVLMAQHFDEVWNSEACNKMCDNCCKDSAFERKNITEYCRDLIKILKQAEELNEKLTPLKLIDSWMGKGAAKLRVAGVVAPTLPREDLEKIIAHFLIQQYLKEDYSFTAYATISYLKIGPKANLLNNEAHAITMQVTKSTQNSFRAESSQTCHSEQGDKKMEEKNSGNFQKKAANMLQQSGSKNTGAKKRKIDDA

Row | SMILES | Potency
1 | O=C1C(Cl)=C(N2CCC(C(=O)O)CC2)C(=O)c2ccccc21 | active: 35.5 µM
2 | CC(=O)Nc1ccc2c(c1)C(C)(C)C(C)N2C (configuration not stated) | active: 79.4 µM
3 | CCN(CC)c1ccc(/C=N/OCC(=O)Nc2cccc(C)c2)cc1 | active: 56.2 µM
4 | CCOC(=O)Cc1cc(=O)n2[nH]c(C)c(-c3ccccc3)c2n1 | inactive
5 | O=C(O)C(C(=O)/C=C/c1ccco1)=C1SCCS1 | inconclusive: 35.5 µM [inhibitor, partial curve]
6 | Cc1cccc(N2CCN(C(=O)CCS(=O)(=O)c3ccc(Br)cc3)CC2C)c1 (configuration not stated) | active: 39.8 µM
7 | Cc1ccc(C2=CC(C)(c3ccc(C)cc3)Nc3nc(C(F)(F)F)nn32)cc1 (configuration not stated) | inactive
8 | Cc1ccc(NC(=O)CN2C(=O)S/C(=C/c3ccc(-c4cc(C(=O)O)ccc4C)o3)C2=O)cc1C | inconclusive: 10 µM [inhibitor, full curve]
9 | Cc1ccc(S(=O)(=O)N2CCC(C(=O)NCCN3CCCCCC3)CC2)cc1 | inactive
10 | COc1ccccc1Oc1nc2c(c(=O)n(Cc3ccccc3F)c(=O)n2C)n1C | inactive
11 | COC(=O)c1ccc(COc2ccc(/C=C(\C#N)c3nc4ccccc4[nH]3)cc2OC)o1 | active: 79.4 µM
12 | Cc1cc(C)n(CCc2nc(-c3ccco3)cs2)n1 | inconclusive: 56.2 µM [inhibitor, partial curve]
13 | COc1ccc(N=C2NC(=O)/C(=C\c3ccco3)S2)cc1 | inconclusive: 50.1 µM [inhibitor, partial curve, poor fit]
14 | CC(=O)NC1=NC(=O)/C(=C/c2cc(C)n(-c3cccc(C(=O)O)c3)c2C)S1 | active: 20 µM
15 | O=C(O)c1ccc(CN2C(=O)CSC2=S)cc1 | inactive
16 | COc1cc(NC(=O)c2cccs2)c(C(=O)OCC(=O)NCc2ccco2)cc1OC | inconclusive: 39.8 µM [inhibitor, partial curve]
17 | CC(=O)c1ccc(S(=O)(=O)N2CCN(C(=O)/C=C/c3ccc4ccccc4n3)CC2)cc1 | inconclusive: 56.2 µM [inhibitor, partial curve]
18 | COc1cc(NC(=O)C2CCN(S(=O)(=O)c3cccc4nonc34)CC2)cc(OC)c1 | inactive
19 | CCCCCn1c(C)c2c(OCC)cccc(=O)c2c1C | inactive
20 | CCCCC#Cc1ccc(C(=O)NNC(=O)Nc2ccccc2)o1 | inconclusive: 44.7 µM [inhibitor, partial curve, poor fit]
21 | CCOC(=O)c1ccc(N2C(=O)c3n[nH]c(-c4ccco4)c3C2c2ccc([N+](=O)[O-])cc2)cc1 (configuration not stated) | inactive
22 | CCc1ccc(NC(=O)COC(=O)c2ccc(Cl)c(S(=O)(=O)N3CCCCCC3)c2)cc1 | inconclusive: 11.2 µM [inhibitor, full curve, poor fit]
23 | CCc1cc(=O)oc2cc(C)c(CN3CCCC3)c(O)c12 | inconclusive: 50.1 µM [inhibitor, partial curve]
24 | O=C1C=C(O)c2cccc(O)c2C1=O | inactive
25 | Cc1ccc(/C=C/C(=O)Nc2ccc([N+](=O)[O-])c(NC(=O)/C=C/c3ccc(C)o3)c2)o1 | inconclusive: 50.1 µM [inhibitor, partial curve]
26 | CCN(CC)Cc1c(O)c(Cl)cc2c(C)cc(=O)oc12 | active: 56.2 µM

Row | SMILES | Potency
27 | O=C(NN1C(=O)C2CC=C(Cl)CC2C1=O)c1ccncc1 (configuration not stated) | active: 12.6 µM
28 | COc1cc(-c2nc3n(n2)C(c2ccncc2)C2=C(CCCC2=O)N3)cc(OC)c1OC (configuration not stated) | inactive
29 | COc1ccccc1N1C(=O)CC(N2CCc3ccccc32)C1=O (configuration not stated) | inactive
30 | O=C(CSc1nc2scc(-c3ccco3)c2c(=O)n1-c1ccccc1)NCC1CCCO1 (configuration not stated) | inconclusive: 50.1 µM [inhibitor, partial curve]
31 | CC1=[N+](C)c2ccc3ccccc3c2C1(C)C | active: 22.4 µM
32 | CN(C)c1ccc(/C=C2\SC(=O)N(CCc3nnc(N)s3)C2=O)cc1 | inconclusive: 39.8 µM [inhibitor, full curve]
33 | Cc1cc(O)c(Oc2cc(C)cc(O)c2O)c(O)c1 | inconclusive: 7.94 µM [inhibitor, full curve]
34 | CCOC(=O)c1cc(-c2ccc(OC)cc2)nn1-c1ccccc1C(=O)O | inconclusive: 50.1 µM [inhibitor, partial curve]
35 | CCCC1=NN2C(=N)/C(=C\c3ccc(SCc4ccco4)o3)C(=O)N=C2S1 | active: 35.5 µM
36 | CC(=O)Oc1ccc(C(=O)[C@H]2[C@H]3C(=O)N(c4ccc5ccccc5c4)C(=O)[C@H]3[C@@H]3C=CC=NN32)cc1 | inconclusive: 44.7 µM [inhibitor, partial curve]
37 | O=C(CSc1nnc(-c2ccccc2)o1)c1nnc(-c2ccccc2)o1 | inactive
38 | CN(C)c1ccc(-c2nc(Nc3ccncc3)c3ccccc3n2)cc1 | inconclusive: 39.8 µM [inhibitor, full curve]
39 | C=CCn1c(=O)c(C#N)cc2c(=O)n3ccccc3nc21 | inactive
40 | Cc1ccc(Nc2nc(N)c([N+](=O)[O-])c(NCc3ccco3)n2)cc1C | active: 50.1 µM
41 | O=c1[nH]c2cc3c(cc2cc1CN(Cc1cccs1)Cc1nnnn1Cc1ccco1)OCCO3 | inactive
42 | CCCCCc1c2c(cc(O)c1C(=O)O)OC(=O)c1c(cc(OC)cc1C(=O)CCCC)O2 | inconclusive: 31.6 µM [inhibitor, full curve]
43 | CCOC(=O)C1=NO[C@@]2(C=C(Br)C(=O)[C@H]3O[C@H]32)C1 | inconclusive: 12.6 µM [inhibitor, partial curve]
44 | CCCCc1cc(=O)oc2cc(C)c(CN3CCCC3)c(O)c12 | inconclusive: 56.2 µM [inhibitor, partial curve]
45 | COCCCn1c(=O)/c(=C\c2ccccc2OC(C)C)s/c1=C(/C#N)C(=O)Nc1ccc(C(=O)O)cc1 | inconclusive: 56.2 µM [inhibitor, partial curve]
46 | O=C(O)/C=C/C(=O)N1Cc2cc3ccccc3nc2C1 | inactive
47 | COc1ccc2[nH]c3c(C)c4cc[n+](C)cc4c(C)c3c2c1 | active: 2.51 µM
48 | O=C(COc1c(Cl)cccc1Cl)NN1C(=O)CSC1=S | inactive
49 | CN(Cc1ccccc1)C(=O)CCNS(=O)(=O)c1ccc2c(c1)oc(=O)n2C | inconclusive: 50.1 µM [inhibitor, partial curve]
50 | COc1cc(C(=O)Nc2nc3ccc(S(=O)(=O)N4CCOCC4)cc3s2)cc(OC)c1OC | active: 31.6 µM
51 | Cc1ccc(S(=O)(=O)/N=C2/NC(=O)/C(=C\c3ccco3)S2)cc1 | inactive
52 | CCOc1cccc(=O)c2c(C)n(C)c(C)c12 | inactive

Row | SMILES | Potency
53 | COC(=O)c1cccc(C(=O)Oc2cccc(Br)c2)n1 | inactive
54 | COc1ccc(S(=O)(=O)Nc2ccccc2C(=O)Nc2nc(-c3ccc(F)cc3)cs2)cc1OC | inconclusive: 89.1 µM [inhibitor, partial curve]
55 | Nc1cc2nc3ccccc3oc-2cc1=O | inconclusive: 100 µM [inhibitor, partial curve, poor fit]
56 | c1ccc(Cn2nnc3c(N4CCCCCC4)ncnc32)cc1 | inactive
57 | O=C(Nc1ccc(-c2nc3ccc(NC(=O)c4cccs4)cc3[nH]2)cc1)c1cccs1 | inconclusive: 11.2 µM [inhibitor, partial curve, poor fit]
58 | CCN(CC)C(=O)CC(c1ccc(OC)cc1)c1c(OC)cc(OC)c2c(-c3ccccc3)cc(=O)oc12 (configuration not stated) | inconclusive: 7.94 µM [inhibitor, full curve]
59 | Cc1ccc(Nc2ccc(N)cc2S(=O)(=O)O)cc1 | inactive
60 | Cc1nc2cnc(N3CCOCC3)nc2n(Cc2ccc(F)cc2)c1=O | inactive
61 | O=C(CSc1ncnc2scc(-c3ccccc3)c12)N1CCN(Cc2ccc3c(c2)OCO3)CC1 | inactive
62 | CCCN1C(=O)/C(=C/c2ccc(C)o2)SC1=Nc1ccc(OC)cc1 | inactive
63 | O=S(=O)(Nc1nc(-c2sccc2Cl)cs1)c1cc(Cl)ccc1Cl | inconclusive: 31.6 µM [inhibitor, full curve]
64 | CCC(NC(=O)Nc1ccc(O)cc1)(C(F)(F)F)C(F)(F)F | inactive
65 | CN(C)c1ccc(C2C3=C(CCCC3=O)OC3=C2C(=O)CCC3)cc1 | inactive
66 | CNC(=O)COC(=O)c1c2c(nc3ccccc13)CCC2 | inconclusive: 31.6 µM [inhibitor, full curve]
67 | CCOC(=O)c1c(NC(=O)/C=C/C(=O)O)sc(C)c1-c1ccc(C(C)(C)C)cc1 | active: 50.1 µM
68 | Cc1ccc(-c2csc(NC(=O)C3=NN(c4ccccc4)C(=O)CC3)n2)cc1 | inactive
69 | CC(=O)OCCNc1cc(SCc2ccco2)c2nonc2c1[N+](=O)[O-] | inactive
70 | O=C(CSc1nc2ccccc2n1CCc1ccccc1)c1ccc(O)c(O)c1 | inconclusive: 1 µM [inhibitor, full curve]
71 | CCN(c1ccccc1)S(=O)(=O)c1cc(C(=O)O)ccc1C | inconclusive: 0.398 µM [inhibitor, full curve]
72 | O=C1c2ccccc2-c2onc3ccc(NCc4ccco4)c1c23 | active: 39.8 µM
73 | CCn1c(CCCOc2ccc(Cl)cc2Cl)nnc1SCC(=O)Nc1cccc(F)c1 | inactive
74 | O=C(NCc1ccco1)[C@@H]1CSC2c3ccccc3C(=O)N21 (some centres not stated) | inconclusive: 44.7 µM [inhibitor, partial curve]
75 | c1csc(Cc2nn3c(-c4n[nH]c5c4CCC5)nnc3s2)c1 | inactive
76 | COc1ccc(C)cc1-n1nnnc1SCC(=O)NC(=O)NCc1ccco1 | inactive
77 | COc1cccc(C(=O)Nc2cccc(C(=O)NC3=NN(c4c(Cl)cc(Cl)cc4Cl)C(=O)C3)c2)c1 | inconclusive: 56.2 µM [inhibitor, partial curve]
